Each structure is given as a SMILES string. The list shows a part of the results. Many values rest on one well or one pass, so single values are uncertain.

Test systems include MZ2-MEL; MeWo; RPMI7951; RVH-421; SkMel28; SkMel2; SkMel30; UACC62; WM115; WM1716; WM1745; WM3526; WM3619; WM451Lu.
Common to all, as to test: cell count relative to DMSO control; melanoma cells; higher = more viable cells
Conditions in all cases: library dose: low library concentration; 72 h
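Also: cell number obtained by counting DAPI-stained nuclei in high-throughput microscope images with image analysis software, screen run in 1,536-well plates.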

With `O=C(O)[C@@H]1[O][Sb](=[O])([O][Sb]2(=[O])[O][C@H]([C@H](O)CO)[C@H](O)[C@H](C(=O)O)[O]2)[O][C@H]([C@H](O)CO)[C@@H]1O` (stereo not given in full) [stibogluconate] + O=C(O)c1ccc2c(c1)nc(Nc1cccc(Cl)c1)c1ccncc12 [CX4945] (first compound 2 µM, partner dose 0.4 µM), the cell count in the experiment with MZ2-MEL amounted to 104%; in the experiment with MeWo, 105%; with RPMI7951, 114%; in the experiment with RVH-421, 125%; with SkMel28, 113%; with SkMel2 it was 102%. The cell count amounted to 95.7% in the experiment with SkMel30; 110% in the experiment on UACC62; 102% with WM115; 95.2% in the experiment with WM1716; 79.2% with WM1745; 88.2% in the experiment with WM3526. Moreover, the cell count with WM3619 came out at 82.6%; in the experiment on WM451Lu, 96.3%.
Take `O=C(Nc1cc(C(F)(F)F)cc(C(F)(F)F)c1)c1cc(Cl)ccc1O` + CS(=O)(=O)CCNCc1ccc(-c2ccc3ncnc(Nc4ccc(OCc5cccc(F)c5)c(Cl)c4)c3c2)o1 [lapatinib] (first compound 0.016 µM, partner dose 0.8 µM): the cell count with MZ2-MEL worked out at 88.1%; with MeWo, 108%; in the experiment on RPMI7951 it was 111%; with RVH-421, 99.1%; with SkMel28 it was 88.8%; in the experiment with SkMel2, 101%. The cell count in the experiment on SkMel30 came to 102%; in the experiment with UACC62, 143%; in the experiment on WM115 it was 103%; in the experiment on WM1716, 96.9%; in the experiment on WM1745, 86%; in the experiment on WM3526, 97.9%. The results for the cell count in the experiment on WM3619 and in the experiment on WM451Lu were 97.2% and 104%, respectively.
With `O=C(Nc1cc(C(F)(F)F)cc(C(F)(F)F)c1)c1cc(Cl)ccc1O` + Nc1cccc2c1CN(C1CCC(=O)NC1=O)C2=O [lenalidomide] (first compound 0.016 µM, partner dose 1 µM), the cell count in the experiment on MZ2-MEL was 110%; in the experiment with MeWo, 102%; in the experiment with RPMI7951 it was 127%; in the experiment on RVH-421, 91.2%; in the experiment with SkMel28, 107%; in the experiment with SkMel2, 103%. For the same compound, the cell count with SkMel30 was found to be 99.6%; in the experiment on UACC62, 109%; in the experiment with WM115 it was 102%; in the experiment on WM1716 it was 128%; with WM1745 it was 126%; in the experiment on WM3526, 132%. The cell count amounted to 88.3% with WM3619 and 119% with WM451Lu.
With `O=C(Nc1cc(C(F)(F)F)cc(C(F)(F)F)c1)c1cc(Cl)ccc1O` + Cn1c(=O)n(-c2ccc(C(C)(C)C#N)cc2)c2c3cc(-c4cnc5ccccc5c4)ccc3ncc21 [NVP-BEZ235] (first compound 0.016 µM, partner dose 0.004 µM), the cell count is 94.9% with MZ2-MEL; 106% with MeWo; 88.2% in the experiment with RPMI7951; 87.5% with RVH-421; 105% in the experiment on SkMel28; 105% in the experiment on SkMel2. Moreover, the cell count in the experiment with SkMel30 worked out at 97.3%; with UACC62 it was 89%; in the experiment with WM115, 100%; in the experiment on WM1716, 98.8%; in the experiment on WM1745 it was 91.6%; with WM3526, 106%. In addition, the cell count in the experiment on WM3619 was 111%; with WM451Lu, 90.8%.
Turning to `O=C(O)[C@@H]1[O][Sb](=[O])([O][Sb]2(=[O])[O][C@H]([C@H](O)CO)[C@H](O)[C@H](C(=O)O)[O]2)[O][C@H]([C@H](O)CO)[C@@H]1O` (stereo not given in full) [stibogluconate] + COc1ccc(Cl)c(Nc2nc3ccccc3nc2NS(=O)(=O)c2cccc(NC(=O)C(C)(C)N)c2)c1 [XL147] (first compound 2 µM, partner dose 0.8 µM), the cell count with MZ2-MEL stood at 83.1%; in the experiment on MeWo, 88.8%; in the experiment with RPMI7951 it was 73.8%; in the experiment on RVH-421, 113%; in the experiment with SkMel28, 106%; in the experiment with SkMel2 it was 92.1%. The cell count worked out at 100% in the experiment on SkMel30; 97.7% with UACC62; 89.2% in the experiment with WM115; 94.3% in the experiment on WM1716; 93.6% in the experiment with WM1745; 101% with WM3526. Moreover, the results for the cell count with WM3619 and in the experiment with WM451Lu were 109% and 89.6%, respectively.
Consider `O=C(Nc1cc(C(F)(F)F)cc(C(F)(F)F)c1)c1cc(Cl)ccc1O` + OCc1c[nH]c2ccccc12 [Indole-3-carbinol] (first compound 0.016 µM, partner dose 0.8 µM), for which the cell count is 88.1% in the experiment on MZ2-MEL; 100% in the experiment with MeWo; 90.9% in the experiment on RPMI7951; 99.6% in the experiment on RVH-421; 84.2% in the experiment on SkMel28; 88.8% in the experiment with SkMel2. Besides, the cell count with SkMel30 amounted to 98.8%; with UACC62 it was 76.5%; with WM115, 90.5%; in the experiment with WM1716, 95.6%; in the experiment on WM1745 it was 110%; in the experiment on WM3526, 91.5%. Moreover, the cell count stood at 85.6% in the experiment on WM3619 and 110% in the experiment on WM451Lu.
Consider `O=C(O)[C@@H]1[O][Sb](=[O])([O][Sb]2(=[O])[O][C@H]([C@H](O)CO)[C@H](O)[C@H](C(=O)O)[O]2)[O][C@H]([C@H](O)CO)[C@@H]1O` (stereo not given in full) [stibogluconate] + CNC(=O)c1cc(Oc2ccc(NC(=O)Nc3ccc(Cl)c(C(F)(F)F)c3)cc2)ccn1 [sorafenib] (first compound 2 µM, partner dose 0.4 µM), for which the cell count was 79.1% in the experiment with MZ2-MEL; 99.6% in the experiment with MeWo; 92.7% in the experiment with RPMI7951; 92.2% in the experiment on RVH-421; 114% with SkMel28; 99% with SkMel2. Moreover, the cell count in the experiment on SkMel30 stood at 103%; in the experiment on UACC62, 99.6%; in the experiment on WM115 it was 98.8%; in the experiment with WM1716 it was 89.8%; in the experiment on WM1745, 93.3%; with WM3526, 84.6%. Moreover, the cell count in the experiment on WM3619 is 94.5%; in the experiment on WM451Lu, 98.1%.
On to `O=C(Nc1cc(C(F)(F)F)cc(C(F)(F)F)c1)c1cc(Cl)ccc1O` + Cn1nnc2c(C(N)=O)ncn2c1=O [temozolomide] (first compound 0.016 µM, partner dose 2 µM), for which the cell count was found to be 98.1% in the experiment with MZ2-MEL; 94.7% in the experiment with MeWo; 111% with RPMI7951; 103% in the experiment with RVH-421; 88.6% with SkMel28; 104% in the experiment with SkMel2. Further, the cell count amounted to 90% in the experiment on SkMel30; 76.4% with UACC62; 93% with WM115; 87.1% in the experiment on WM1716; 86.2% in the experiment with WM1745; 95.5% in the experiment with WM3526. Also, the cell count came out at 98.1% in the experiment with WM3619 and 90.6% in the experiment with WM451Lu.
Regarding `O=C(Nc1cc(C(F)(F)F)cc(C(F)(F)F)c1)c1cc(Cl)ccc1O` + CN1CCN(c2ccc3nc(-c4c(N)c5c(F)cccc5[nH]c4=O)[nH]c3c2)CC1 [Dovitinib] (first compound 0.016 µM, partner dose 0.1 µM), the cell count in the experiment on MZ2-MEL came to 95.7%; in the experiment with MeWo, 84.7%; in the experiment on RPMI7951 it was 105%; in the experiment on RVH-421, 114%; in the experiment on SkMel28 it was 98.7%; in the experiment on SkMel2 it was 99.7%. The cell count is 82.8% in the experiment with SkMel30; 104% in the experiment on UACC62; 103% with WM115; 105% with WM1716; 93.9% with WM1745; 102% in the experiment on WM3526. The figures for the cell count with WM3619 and with WM451Lu were 96.2% and 104%, respectively.
Regarding `O=C(Nc1cc(C(F)(F)F)cc(C(F)(F)F)c1)c1cc(Cl)ccc1O` + CCN(CC)CCNC(=O)c1c(C)[nH]c(/C=C2\C(=O)Nc3ccc(F)cc32)c1C [sunitinib] (first compound 0.016 µM, partner dose 0.4 µM), the cell count in the experiment with MZ2-MEL turned out to be 104%; in the experiment on MeWo it was 87.6%; with RPMI7951 it was 104%; in the experiment on RVH-421, 114%; in the experiment with SkMel28, 117%; with SkMel2 it was 122%. The cell count is 98.4% with SkMel30; 101% in the experiment with UACC62; 126% in the experiment on WM115; 93.2% with WM1716; 91.9% in the experiment on WM1745; 104% in the experiment with WM3526. In addition, the cell count worked out at 98.7% in the experiment with WM3619 and 91.3% in the experiment with WM451Lu.

The values are drawn from the supplement of paper PMC4604168 (melanoma cell lines).
